# The whole screen tested about 52,000 compounds, of which about 4,300 (8.3%) were called active. No stated cut-off is given here; in the data, active means survival mostly below about 52% (no sharp cut-off); inactive means mostly above about 56%. The list shows a part of the results.
# Test system: DeltatarO mutant
# Experiment: S. aureus survival, RN4220 and DeltatarO strains – OD600, teichoic acid synthesis inhibitors, primary screen (AID 463173)
# Conditions: S. aureus RN4220 wild type/DeltatarO growth, OD600, 18 h, active compounds read low, screened at 18.75 µg/mL (by protocol)
row,SMILES,survival
1,CC(=O)c1ccc(NC(=O)CCc2c(C)nc3cc(-c4ccc(Cl)cc4)nn3c2C)cc1,inactive: 47%
2,Cc1cccc(Cc2c(C)nc3nc(SCc4ccccc4C)nn3c2C)c1,inactive: 95%
3,Cc1ccc(C)c(NC(=O)CN(CCc2ccccc2)S(=O)(=O)c2ccccc2)c1,active: 46%
4,CCC1CN(C(=O)Nc2cc(C)cc(C)c2)c2ccccc2O1 (centres undefined),inactive: 59%
5,O=C(O)c1ccc(CSc2nnc(-c3ccncc3)n2CC2CCCO2)cc1 (centres undefined),inactive: 76%
6,CCc1ccc(NC(=O)Cn2c(=O)n(CCC(=O)NCc3ccc4c(c3)OCO4)c(=O)c3ccccc32)cc1,inactive: 91%
7,Cc1c(C)n(Cc2ccccc2)c2ccc(C(=O)NCc3ccco3)cc12,inactive: 101%
8,Cc1c(-c2nsc(NC(=O)c3cccs3)n2)nnn1-c1ccc(Br)cc1,inactive: 77%
9,Cc1cccc(CN2CCc3nc(N4CCN(c5ccccn5)CC4)ncc3C2)c1,inactive: 88%
10,Cn1c(=O)c2c(n(C)c1=O)=NC1(CCCCC1)ON=2,inactive: 73%
11,CCCc1cc(=O)n2[nH]c(NCc3ccccc3OC)nc2n1,inactive: 103%
12,Cc1ccc(S(=O)(=O)N2CCC(c3ccncc3)CC2)c(C)c1,inactive: 128%
13,CCOC(=O)c1c(C)n(CC)c2cc(Br)c(O)cc12,inactive: 106%
14,O=C(COc1ccccc1-c1nc(-c2ccccc2)no1)Nc1ccccc1[N+](=O)[O-],active: 31%
15,CC(C)CCNC(=O)[C@@H](c1ccccc1)N1Cc2ccccc2C1=O,active: 12%
16,Cc1cccc(N2C(=O)C3C(C(=O)NC4CC4)C4C=CC3(O4)C2C(=O)NC2CCCC2)c1 (centres undefined),inactive: 75%
17,CCOc1ccc(NC(=O)Cn2nnc(C(=O)Nc3ccc(OCC)cc3)c2N)cc1,inactive: 96%
18,CCc1nn(CC(=O)NC(C)c2ccccc2)c(=O)c2cc3sccc3n12 (centres undefined),inactive: 88%
19,CCOC(=O)C1=C(CS(=O)(=O)c2ccc(F)cc2)NC(=O)NC1c1ccc(OCC)c(OC)c1 (centres undefined),inactive: 119%
20,Cc1cc(C)cc(OCC(=O)NCC2(N(C)C)CCCCC2)c1,inactive: 105%
21,Cc1ccc(C)c(N2CCN(c3cc(C)nc4c(-c5ccc(Cl)cc5)c(C)nn34)CC2)c1,inactive: 99%
22,CCOc1ccc(S(=O)(=O)NCc2ccc3c(c2)OCO3)cc1,inactive: 85%
23,O=C(NCc1ccccc1Cl)C1CCCN(c2ncnc3onc(-c4ccc(F)cc4)c23)C1 (centres undefined),inactive: 91%

row,SMILES,survival
1,CC(=O)Nc1ccc(C2Nc3c(C)cc(C)cc3-c3cc(C)nn32)cc1 (centres undefined),inactive: 161%
2,Cc1ccc(S(=O)(=O)NCCSc2nnnn2-c2ccc(Cl)c(C(=O)O)c2)cc1,inactive: 138%
3,COc1cc(OC)c(NS(=O)(=O)c2ccc3c(c2)NC(=O)CCS3)cc1Cl,inactive: 109%
4,CCOC(=O)c1c(C)oc2nc(C)nc(NCc3ccccc3OCC)c12,inactive: 102%
5,Cc1cc(NNC(=O)c2ccccc2)nc(NNC(=O)c2ccccc2)n1,inactive: 69%
6,CCOC(=O)c1ccc(NC(=O)C(Cc2ccccc2)NS(=O)(=O)c2ccc(Br)s2)cc1 (centres undefined),inactive: 90%
7,O=C(CS(=O)(=O)c1cccc2nsnc12)NCc1ccc(Cl)cc1,inactive: 129%
8,COc1ccc(-c2c(C)nn3c4c(cnc23)C(=O)CC(c2ccccc2)C4)cc1 (centres undefined),inactive: 99%
9,CC(NC(=O)c1ccc(Nc2nc3ccccc3n3nnnc23)cc1)c1ccccc1 (centres undefined),inactive: 77%
10,O=C(N1CCOCC1)N1CCC(NC(=O)C23CC4CC(CC(C4)C2)C3)CC1,inactive: 61%
11,Cc1nc2nc(-c3ccc(Cl)cc3Cl)nn2c(C)c1CCC(=O)Nc1ccc(F)cc1,inactive: 85%
12,CCCCN(C)CCCNC(=O)CN1C(=O)COc2ccc(S(=O)(=O)N3CCOCC3)cc21,inactive: 86%
13,O=C(O)CCc1ccc(-c2cccs2)[nH]1,inactive: 91%
14,Cc1cccc(-c2cc(NC(=O)C(C)(C)C)n(-c3ccccc3)n2)c1,inactive: 99%
15,COc1ccc(C(CC(=O)Nc2cccc(C)c2C)N2Cc3ccccc3C2=O)cc1 (centres undefined),inactive: 72%
16,COc1cc(C2c3c(oc4ccccc4c3=O)C(=O)N2c2nncs2)cc(OC)c1OC (centres undefined),inactive: 73%
17,Cc1cccc2cc(CNCc3ccco3)c(=O)[nH]c12,inactive: 78%
18,O=C(COc1ccc(F)cc1)Nc1ccccc1C(=O)OCc1cc(=O)n2nc(C3CC3)sc2n1,inactive: 97%
19,CCOc1ccc(-c2cn3c(n2)sc2cc(C(=O)NCCCc4ccccc4)ccc23)cc1,inactive: 72%
20,Cc1nc2nc(SCc3ccc(F)cc3Cl)nn2c(C)c1Cc1ccccc1,inactive: 81%
21,COc1ccc(CCNC(=O)CN(c2cc(C(F)(F)F)ccc2Cl)S(C)(=O)=O)cc1,inactive: 61%
22,Cc1ccc(OCC(=O)Nc2ccccc2C(=O)OCc2cc(=O)n3ccsc3n2)cc1C,inactive: 82%
23,O=C(Cn1ccc2cc(S(=O)(=O)N3CCCCC3)ccc21)NCCc1ccc(Cl)cc1,inactive: 101%

row,SMILES,survival
1,O=C(O)Cc1sc(Nc2ccccc2Cl)nc1-c1ccccc1,inactive: 81%
2,CCOC(=O)c1c(NC(=O)Cc2coc3cc(C)ccc23)sc2c1CCCC2,inactive: 95%
3,CCc1ccc(NC(=O)c2cc3nc(-c4ccc(C)cc4)cc(C(F)(F)F)n3n2)cc1,inactive: 54%
4,COC(=O)c1sc(NC(=O)c2cc3nc(-c4ccc(Br)cc4)cc(C(F)(F)F)n3n2)c(C(=O)OC)c1C,inactive: 58%
5,COc1ccccc1N1CCN(S(=O)(=O)c2c(C)sc3ncn(CC(=O)Nc4ccc(C(F)(F)F)cc4)c(=O)c23)CC1,inactive: 71%
6,CC(=O)c1ccc(NC(=O)C2CCCN(S(=O)(=O)c3ccc4c(c3)CCCN4C(C)=O)C2)cc1 (centres undefined),inactive: 93%
7,Cc1cc(C)c(NC(=O)CCCN2C(=O)COc3ccc(C)cc32)c(C)c1,inactive: 111%
8,CCCCn1c(=O)c(C(=O)OCC)c(O)c2ccccc21,inactive: 52%
9,COc1ccc(NC(=O)CSc2nc3cc(OC)c(OC)cc3c3nc(-c4ccccc4)nn23)cc1Cl,inactive: 123%
10,COC(=O)c1ccc(NC(=O)C(=O)NCCc2sc(-c3cccc(F)c3)nc2C)cc1,inactive: 98%
11,COc1cc(-c2ccno2)ccc1S(=O)(=O)N1CCN(c2ccccc2F)CC1,inactive: 70%
12,CCCN(CCC)C(=O)CSc1nc2ccccc2c(=O)n1Cc1ccco1,inactive: 83%
13,COc1ccc(CC(=O)NCc2nc3cccnc3n2Cc2ccc(C)cc2)cc1,inactive: 92%
14,CCOC(=O)c1cc(S(=O)(=O)N2CCN(c3cc(C)ccc3C)CC2)[nH]n1,inactive: 77%
15,CCC1=NN(C(=O)COc2ccccc2C)C(O)(c2ccncc2)C1 (centres undefined),inactive: 90%
16,Cc1cccc(C)c1N1CC(c2nc3ccccc3n2CC(=O)OC(C)C)CC1=O (centres undefined),inactive: 56%
17,CCC1CCCCN1C(=O)CSc1ncc(-c2ccc(F)cc2)n1CC (centres undefined),inactive: 79%
18,COc1ccc(S(=O)(=O)NCC(c2ccco2)N2CCOCC2)cc1 (centres undefined),inactive: 102%
19,Cc1cc(C)cc(NC(=O)CSc2oc(-c3cccs3)nc2S(=O)(=O)c2ccccc2)c1,inactive: 138%
20,CC1CCCCN1C(=O)C12CCC(C)(C(=O)C1)C2(C)C (centres undefined),inactive: 97%
21,Fc1ccc(-c2cc(-c3ccccc3)c3c(n2)-c2cc(F)ccc2OC3)cc1,inactive: 76%
22,Cc1ccc(-c2c(C)n3c4c(=O)n(C)c(=O)n(C)c4nc3n2-c2cccc(O)c2)cc1,inactive: 111%
23,Cc1c(NC(=O)c2ccc(OC(C)C)cc2)cccc1-c1nc2ncccc2o1,inactive: 47%

row,SMILES,survival
1,Cc1ccc(S(=O)(=O)c2cn(CC(=O)Nc3ccc(C)c(Cl)c3)c3ccc(C)cc3c2=O)cc1,inactive: 96%
2,Cn1cnc2sc3c(c2c1=O)CCCC3,inactive: 97%
3,Cc1cc(F)c(F)c(C(=O)N2CCCCCC2)c1Cl,inactive: 108%
4,COc1cccc(C(=O)NCCSc2c(-c3ccc(F)cc3)[nH]c3ccccc23)c1OC,inactive: 52%
5,Cc1ccc(CNC(=O)C2CCCN(S(=O)(=O)c3ccc4c(c3)oc(=O)n4C)C2)cc1 (centres undefined),inactive: 71%
6,O=C1CN(C(=O)c2ccc(S(=O)(=O)N3CCCCC3)cc2)C(c2ccc(F)cc2)c2cc(F)ccc2N1 (centres undefined),inactive: 55%
7,Cc1cc(C)cc(-n2nnc(-c3nc(-c4ccc5c(c4)OCO5)no3)c2C)c1,inactive: 77%
8,CC(=O)c1ccc(NC(=O)c2cn3c4c(ccc(Cl)c4c2=O)OC(C)C3)cc1 (centres undefined),inactive: 86%
9,CCC(=O)N1c2ccc(S(=O)(=O)N3CCN(c4ccccc4)CC3)cc2CC1C (centres undefined),inactive: 99%
10,COc1cc2c(=O)n(CCC(=O)NCC3CCCO3)c(=O)n(CC(=O)Nc3ccc(C)cc3)c2cc1OC (centres undefined),inactive: 92%
11,Cc1ccc(S(=O)(=O)C(CNC(=O)C(=O)NCc2ccc(Cl)cc2)c2cccs2)cc1 (centres undefined),inactive: 80%
12,Cc1ccc(C(=O)NCCn2c(C)cc3ccccc32)cc1C,inactive: 53%
13,COc1ccc(NC(=O)Cn2c(=O)oc3cc(S(=O)(=O)NC4CCCC4)ccc32)cc1OC,inactive: 93%
14,CCCNC(=O)c1ccc2c(c1)ncn2-c1ccc(C)cc1C,inactive: 75%
15,COc1ccc(CNc2ncnc3onc(C)c23)cc1,inactive: 74%
16,CCc1ccc(CNC(=O)c2ccc3c(c2)N=C(C)c2cc(C)ccc2S3)cc1,inactive: 68%
17,CN(C)CCNC(=O)c1ccc(-n2c(-c3ccccc3)cc3c2CCCC3)cc1,active: 33%
18,CC(C)Oc1ccc(CNC(=O)CCCn2c(=O)c3cccn3c3ccccc32)cc1,active: 45%
19,CCCS(=O)(=O)Nc1cc(-c2cn3cccc(C)c3n2)ccc1C,inactive: 59%
20,COc1ccc(-c2cn3nc(N4CCC(C(=O)NCc5ccccc5F)CC4)sc3n2)cc1,inactive: 91%
